Assay results from PubChem BioAssay AID662 (National Center for Advancing Translational Sciences (NCATS), 2007).
The campaign covered roughly 71,000 compounds. About 1,800 (2.5%) were called active. The inconclusive results got no clear call from the source; some entries with a clear call stand among them for comparison. The call rests on the fitted dose curve; in most records, active means well fitted activation curve with a large enough effect in the signal ratio, with a control signal flat (not every such curve was filed as active); inconclusive means small, poorly fitted or top-dose-only effect, or effect the other way, or a change in a side signal; inactive means flat fitted curve, though single readings scatter; the % refers to the signal ratio. A potency beside an inconclusive call is a rough fit, not a confirmed value.

Assay: Cell signaling CRE-BLA (Fsk stim); on activity change, negative = inhibition: % of control where 0% means no effect
Conditions: CHO CRE-bla reporter (cAMP response element driving beta-lactamase), forskolin EC10, beta-lactamase ratio; activity change, negative = inhibition: at 38.2 µM (top of the series) unless noted
How it was run: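 Titrated compounds plus EC10 NKH 477 on CHO CRE-bla cells, 3 h, 37 °C. CCF4, 2 h RT. Ratio 460/530 nm → AC50.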
Potency means the concentration at half of the fitted maximal effect; tags describe the fitted curve by direction and shape.

| SMILES | Potency | activity change, negative = inhibition |
| --- | --- | --- |
| Cn1cccc1C(=O)N1CCC2(CC1)CN(c1ccccn1)C2 | inconclusive: 25.1 µM [rising, single point] | – |
| O=c1c(-c2ccccc2)[n+]([O-])c2ccccc2n1O | inconclusive: 12.6 µM [falling, partial curve] | – |
| Cc1cc(N2CCCC2=O)cc(C)c1S(N)(=O)=O | inconclusive: 0.00398 µM [falling, full curve, poor fit] | – |
| C=C1CSc2nc(=O)c3c4c(sc3n21)CCC4 | – | inactive: 10.2% |
| CN(C)c1ccc(-c2nc(-n3ccnc3)c3ccccc3n2)cc1 | – | inconclusive: 2.13% [fluorescent] |
| CC(C)C(C)(C#N)NC(=O)CSc1nc2scc(-c3ccco3)c2c(=O)n1-c1ccccc1 (stereo not drawn) | inconclusive: 15.8 µM [rising, single point] | – |
| Cc1cc(C)n2nc(NCc3ccccc3)nc2n1 | – | inactive: 15.3% |
| CCCCS(=O)(=O)/C=C\C1C2C=CC(C2)C1S(=O)(=O)CCCC (stereo not drawn) | – | inactive: -3.83% |
| CCn1c(=O)cc(OCC(=O)N2CCN(C(=O)c3ccco3)CC2)c2ccccc21 | inconclusive: 25.1 µM [rising, single point] | – |
| Cc1cc2c(cc(C(=O)O)n2C)s1 | – | inconclusive: -8.92% |
| NC(=NCc1ccc(Cl)c(Cl)c1)NC(=O)c1nc(Cl)c(N)nc1N | – | inactive: -1.65% |
| O=c1cnc2cnc(N3CCNCC3)nc2n1Cc1ccc(F)cc1 | inconclusive: 25.1 µM [rising, single point] | – |
| COc1ccc(CCNS(=O)(=O)c2ccccc2)cc1OC | – | inconclusive: 28.9% |
| O=C(Cc1cccs1)N(Cc1ccco1)C1(C(=O)NC2CCCC2)CCCCC1 | – | inconclusive: -16.8% |
| N#C/C=C1\n2c(nc3ccccc32)OC12CCCCC2 | inconclusive: 12.6 µM [rising, partial curve] | – |
| COC(=O)c1ccccc1NC(=O)C1CCN(C(=O)c2cc(OC)cc(OC)c2)CC1 | inconclusive: 10 µM [rising, single point] | – |
| COC(=O)Cc1c(C)nc2nc(Cc3ccccc3)[nH]n2c1=O | – | inconclusive: -8.13% |
| O=C(c1ccccc1/S(=N/S(=O)(=O)c1ccccc1)N1CCOCC1)N1CCOCC1 (stereo not drawn) | – | inactive: -0.39% |
| O=C1CSC(c2cn(-c3ccccc3)nc2-c2cccs2)N1CC1CCCO1 (stereo not drawn) | – | inconclusive: 15.4% |
| Cc1ccc(-c2nnn(CC(=O)Nc3ccccc3N3CCOCC3)n2)cc1 | inconclusive: 10 µM [rising, single point] | – |
| COC(=O)c1ccc(CSc2nc3c(cnn3-c3ccc(C)cc3)c(=O)[nH]2)o1 | active: 6.31 µM | – |

| SMILES | Potency | activity change, negative = inhibition |
| --- | --- | --- |
| CCN(CC)C(=O)CSC(=Nc1ccccc1F)NC#N | inconclusive: 7.94 µM [falling, partial curve] | – |
| C[C@]12CC[C@H]3c4ccc(O)cc4CC[C@@H]3[C@H]1CC[C@@H]2OP(=O)(O)O | – | inactive: -2.28% [at 7.6 µM] |
| CC(C)Cn1c(=O)c(C(=O)NCc2ccccn2)c(O)c2ccccc21 | – | inconclusive: 18.4% |
| CCOC(=O)Cc1cc(=O)n2[nH]c(C)c(-c3ccccc3)c2n1 | – | inactive: -4.28% |
| CCOc1ccc(C2C(C#N)=C(N)Oc3n[nH]c(C)c32)cc1OC(=O)C1CC1 (stereo not drawn) | – | inactive: -14.7% |
| O=C(C(Cc1ccccc1)n1cccc1)N1CCCCC1 (stereo not drawn) | – | inactive: -0.718% |
| OC(COc1c(Br)cc(Br)cc1Br)CN1CCOCC1 (stereo not drawn) | inconclusive: 10 µM [rising, partial curve] | – |
| CCOC(=O)Cc1nnc(NC(=O)CSc2ccccc2)s1 | – | inconclusive: -8.38% |
| Cc1ccc(NC(=O)COC(=O)C2CCC(=O)N2)c(S(=O)(=O)N2CCOCC2)c1 (stereo not drawn) | – | inconclusive: 21.8% |
| CN1CCN(c2ncc3ncc(=O)n(CCC#N)c3n2)CC1 | – | inactive: -1.07% |
| CCn1c(=NC(=O)CSC(C)=O)sc2ccccc21 | – | inconclusive: -7.55% |
| Cc1ccc(CNC(=O)c2cn(C3CCCCC3)c(=O)c3c2c2ccccc2n3C)o1 | inconclusive: 1 µM [rising, partial curve, poor fit] | – |
| Cc1noc(C(=O)NCc2ccco2)c1Cl | – | inactive: -2.87% |
| O=C(CCN1CCc2ccccc2C1)Nc1ccc(F)cc1 | – | inconclusive: -20.6% |
| Cc1coc2cc3oc(=O)c4c(c3cc12)CCCC4 | inconclusive: 0.0631 µM [rising, full curve, poor fit] | – |
| O=C(CCNC(=O)c1ccc(Br)o1)NCc1ccccn1 | – | inconclusive: -0.917% |
| Cn1c(=O)c2c(-c3ccccc3)n3c4ccccc4ncc3c2n(C)c1=O | active: 3.98 µM | – |
| COc1ccccc1CCNC(=O)c1cnn2c(C(F)F)cc(C)nc12 | inconclusive: 10 µM [rising, partial curve] | – |
| Nc1cccc2cc(S(=O)(=O)Nc3ccc(C(=O)O)cc3)ccc12 | – | inactive: 6.08% [at 7.6 µM] |
| Cc1ccccc1-c1nnc(SCc2ccc(F)cc2)o1 | – | inconclusive: 22% |
| CCN(CC)C(=O)CSc1nnc(-n2nc(C)cc2C)c2ccccc12 | – | inactive: -3.54% |

| SMILES | Potency | activity change, negative = inhibition |
| --- | --- | --- |
| COc1cccc(C(c2nnnn2CCc2ccccc2)N2CCN(c3ccccc3)CC2)c1OC (stereo not drawn) | – | inactive: 9.76% |
| N#CC(C(=O)C12CC3CC(CC(C3)C1)C2)c1nc2ccccc2[nH]1 (stereo not drawn) | inconclusive: 0.631 µM [falling, single point] | – |
| CC(=O)c1sc(N2C(=O)c3oc4ccccc4c(=O)c3C2c2ccc(C)o2)nc1C (stereo not drawn) | – | inactive: 3.64% |
| CC(C)N(Cc1nc(-c2ccccc2)no1)C(=O)CN1C(=O)c2ccccc2C1=O | inconclusive: 3.16 µM [falling, full curve, poor fit] | – |
| Nc1[nH]nc2nc3ccccc3nc12 | inconclusive: 25.1 µM [falling, partial curve, poor fit] | – |
| Cc1cc(C(=O)Cn2nnc3ccccc3c2=O)c(C)n1-c1c(C)n(C)n(-c2ccccc2)c1=O | inconclusive: 10 µM [rising, single point] | – |
| CCOC(=O)c1cnc(SCC(=O)Nc2ccc3c(c2)OCCO3)nc1N | inconclusive: 10 µM [rising, single point] | – |
| CCOC(=O)Cc1csc(NC(=O)c2c(-c3ccccc3)noc2C)n1 | inconclusive: 0.0501 µM [rising, full curve, poor fit] | – |
| COc1ccc(Nc2ncnc3c2cnn3Cc2ccccc2)cc1 | inconclusive: 10 µM [rising, single point] | – |
| COc1ccc2c(c1)c1ncn(Cc3ccco3)c(=O)c1n2C | active: 1 µM | – |
| CCN1C(=O)c2c(C)nc3ccccc3c2C1=O | inconclusive: 7.94 µM [rising, partial curve] | – |
| Cc1ccc(CCNC(=O)c2nnn(-c3cc(C)cc(C)c3)c2N)cc1 | – | inconclusive: -21.6% |
| O=C1CC2(CCCCC2)Oc2ccc(O)cc21 | – | inconclusive: 24.2% |
| CCCC1CCC(C(=O)Nn2c(C)nc3ccccc3c2=O)CC1 (stereo not drawn) | – | inconclusive: -4.01% |
| COc1ccc(C(C)=O)cc1COC(=O)Cc1n[nH]c(=O)c2ccccc12 | – | inconclusive: 18.5% |
| O=c1c2cccnc2[nH]c(=S)n1CCCN1CCN(c2ccc(F)cc2)CC1 | inconclusive: 20 µM [falling, single point] | – |
| CCn1nc(C(=O)OCC(=O)NCCN2C(=O)CSC2=O)c2ccccc2c1=O | – | inconclusive: 18.5% |
| CN(C)S(=O)(=O)N1CCCN(S(=O)(=O)N(C)C)CC1 | – | inconclusive: -2.82% |
| CCOC(=O)C1CCN(C(=O)Nc2ccc3nc(C)c(C)nc3c2)CC1 | inconclusive: 12.6 µM [rising, single point] | – |
| NC(=O)c1ccccc1NC(=O)c1ccccc1F | – | inactive: 5.08% |
| N#Cc1ccc(CN2CC3(CCN(C(=O)c4cnccn4)CC3)C2)cc1 | – | inactive: 6.3% |

| SMILES | Potency | activity change, negative = inhibition |
| --- | --- | --- |
| Oc1ccc(Cl)cc1/C=N/c1nccs1 | – | inconclusive: 21.5% [at 7.6 µM] |
| CCOC(=O)c1[nH]cnc1C(=O)Nc1ccncc1 | inconclusive: 10 µM [rising, partial curve] | – |
| CCOC(=O)C1CCN(C(=O)C2CCN(S(=O)(=O)c3c(C)noc3C)CC2)CC1 | – | inconclusive: -8.88% |
| CCN1CCN(C(=O)CS(=O)(=O)Cc2nc(-c3ccc(C)cc3)oc2C)CC1 | – | inactive: -8.4% |
| Cc1[nH]nc(-c2ccc(O)cc2O)c1-c1ccc(Cl)cc1 | inconclusive: 25.1 µM [rising, single point] | – |
| O=C(c1csnn1)N1CCC2(CC1)CN(c1ccncc1)C2 | – | inactive: 10.8% |
| CCc1noc(C)c1C(=O)Nc1ncc(C)s1 | – | inactive: 4.43% |
| CC(Sc1nnc(C2CCCCC2)n1N)C(=O)NCc1ccc2c(c1)OCO2 (stereo not drawn) | – | inactive: -1.73% |
| O=C(c1cc(-c2ccncc2)nc2ccccc12)N1CCN(c2ccc(N3CCOCC3)nn2)CC1 | – | inconclusive: 12.9% |
| O=C(c1cc(-c2cccs2)on1)N1CCCc2ccccc21 | – | inactive: -16.2% |
| COc1cc(C)nc(N2CCC(C(N)=O)CC2)n1 | – | inactive: 4.36% |
| COc1cc(NC(=O)C2CCCO2)c(OC)cc1NC(=O)c1ccccc1 (stereo not drawn) | inconclusive: 6.31 µM [rising, partial curve] | – |
| COc1cccc(C2CC(c3ccccc3Cl)n3ncnc3N2)c1 (stereo not drawn) | – | inconclusive: 19% |
| COc1ccc(CCNC(=O)c2nnc(Cc3c(F)cccc3Cl)o2)cc1OC | – | inactive: -4.72% |
| O=C(c1cnccn1)N1CCC2(CC1)CCN(C(c1ccccc1)c1ccccc1)CC2 | – | inconclusive: -6.93% |
| Cn1c(=N)n(CC(O)c2cccc3ccccc23)c2ccccc21 (stereo not drawn) | – | inactive: -6.46% |
| CC(C)c1cccc2c([Si](C)(C)C)c3c(nc12)-c1cccc(=O)n1C3 | inconclusive: 12.6 µM [rising, partial curve] | – |
| COc1ccc2[nH]cc(CCNc3ccnc(-c4ccc(N(C)C)cc4)n3)c2c1 | – | inconclusive: 16% |
| N[C@H]1CCN(O)C1=O | – | inactive: -7.12% |
| COc1ccc(OCc2nnc3n2N=C(c2ccc(C)cc2)CS3)cc1 | inconclusive: 12.6 µM [rising, single point] | – |
